We go through 31 molecules from PMC9911399, “Two distinct binding modes provide the RNA-binding protein RbFox with extraordinary sequence specificity”.

Positions count from the first letter of the chain named. Some of the results follow.

T1: RBFOX1 RRM (Homo sapiens, UniProt Q9NWB1 109-208)
T1 sequence: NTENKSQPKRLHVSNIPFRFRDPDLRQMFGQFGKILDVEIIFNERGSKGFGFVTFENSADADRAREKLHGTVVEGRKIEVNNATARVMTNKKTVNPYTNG

B1: AACGGAG (DNA:RNA)
RNA: GGGAGACCGGAAUUCAGAUUGUCCAACGGAGUUAAAUCCCGUCGUAGCCACCA
DNA 1: CAATCTGAATTCCGGTCTCCC
DNA 2: TGGTGGCTACGACGGGATT
B2: UGUCCUC (DNA:RNA)
RNA: GGGAGACCGGAAUUCAGAUUGUCCUGUCCUCUUAAAUCCCGUCGUAGCCACCA
DNA 1: CAATCTGAATTCCGGTCTCCC
DNA 2: TGGTGGCTACGACGGGATT
B3: CGCAAUU (DNA:RNA)
RNA: B2 RNA with U25C, U27C, C28A, C29A, C31U
DNA 1: CAATCTGAATTCCGGTCTCCC
DNA 2: TGGTGGCTACGACGGGATT
B4: CGUCUGC (DNA:RNA)
RNA: B2 RNA with U25C, C29U, U30G
DNA 1: CAATCTGAATTCCGGTCTCCC
DNA 2: TGGTGGCTACGACGGGATT
B5: GUUUAAG (DNA:RNA)
RNA: B1 RNA with A25G, A26U, C27U, G28U, G29A
DNA 1: CAATCTGAATTCCGGTCTCCC
DNA 2: TGGTGGCTACGACGGGATT
B6: AACAAAG (DNA:RNA)
RNA: B1 RNA with G28A, G29A
DNA 1: CAATCTGAATTCCGGTCTCCC
DNA 2: TGGTGGCTACGACGGGATT
B7: UUGCCUG (DNA:RNA)
RNA: B2 RNA with G26U, U27G, C31G
DNA 1: CAATCTGAATTCCGGTCTCCC
DNA 2: TGGTGGCTACGACGGGATT
B8: UAAUGAU (DNA:RNA)
RNA: B1 RNA with A25U, C27A, G28U, G31U
DNA 1: CAATCTGAATTCCGGTCTCCC
DNA 2: TGGTGGCTACGACGGGATT
B9: GAUCAGU (DNA:RNA)
RNA: B2 RNA with U25G, G26A, C29A, U30G, C31U
DNA 1: CAATCTGAATTCCGGTCTCCC
DNA 2: TGGTGGCTACGACGGGATT
B10: UACAACG (DNA:RNA)
RNA: B1 RNA with A25U, G28A, G29A, A30C
DNA 1: CAATCTGAATTCCGGTCTCCC
DNA 2: TGGTGGCTACGACGGGATT
B11: CGUCCGG (DNA:RNA)
RNA: B2 RNA with U25C, U30G, C31G
DNA 1: CAATCTGAATTCCGGTCTCCC
DNA 2: TGGTGGCTACGACGGGATT
B12: GCUUUGU (DNA:RNA)
RNA: B2 RNA with U25G, G26C, C28U, C29U, U30G, C31U
DNA 1: CAATCTGAATTCCGGTCTCCC
DNA 2: TGGTGGCTACGACGGGATT
B13: GUGAAUC (DNA:RNA)
RNA: B2 RNA with U25G, G26U, U27G, C28A, C29A
DNA 1: CAATCTGAATTCCGGTCTCCC
DNA 2: TGGTGGCTACGACGGGATT
B14: GGACCCG (DNA:RNA)
RNA: B2 RNA with U25G, U27A, U30C, C31G
DNA 1: CAATCTGAATTCCGGTCTCCC
DNA 2: TGGTGGCTACGACGGGATT
B15: CUACUCU (DNA:RNA)
RNA: B2 RNA with U25C, G26U, U27A, C29U, U30C, C31U
DNA 1: CAATCTGAATTCCGGTCTCCC
DNA 2: TGGTGGCTACGACGGGATT
B16: GUCCAAU (DNA:RNA)
RNA: B1 RNA with A25G, A26U, G28C, G29A, G31U
DNA 1: CAATCTGAATTCCGGTCTCCC
DNA 2: TGGTGGCTACGACGGGATT
B17: AACUUGU (DNA:RNA)
RNA: B1 RNA with G28U, G29U, A30G, G31U
DNA 1: CAATCTGAATTCCGGTCTCCC
DNA 2: TGGTGGCTACGACGGGATT
B18: UGAUAAC (DNA:RNA)
RNA: B2 RNA with U27A, C28U, C29A, U30A
DNA 1: CAATCTGAATTCCGGTCTCCC
DNA 2: TGGTGGCTACGACGGGATT
B19: GCCGUCG (DNA:RNA)
RNA: B1 RNA with A25G, A26C, G29U, A30C
DNA 1: CAATCTGAATTCCGGTCTCCC
DNA 2: TGGTGGCTACGACGGGATT
B20: CCAUUGC (DNA:RNA)
RNA: B2 RNA with U25C, G26C, U27A, C28U, C29U, U30G
DNA 1: CAATCTGAATTCCGGTCTCCC
DNA 2: TGGTGGCTACGACGGGATT
B21: UGGGUCC (DNA:RNA)
RNA: B2 RNA with U27G, C28G, C29U, U30C
DNA 1: CAATCTGAATTCCGGTCTCCC
DNA 2: TGGTGGCTACGACGGGATT
B22: GUGUUUC (DNA:RNA)
RNA: B2 RNA with U25G, G26U, U27G, C28U, C29U
DNA 1: CAATCTGAATTCCGGTCTCCC
DNA 2: TGGTGGCTACGACGGGATT
B23: CAGAUCC (DNA:RNA)
RNA: B1 RNA with A25C, C27G, G28A, G29U, A30C, G31C
DNA 1: CAATCTGAATTCCGGTCTCCC
DNA 2: TGGTGGCTACGACGGGATT
B24: GACACAG (DNA:RNA)
RNA: B1 RNA with A25G, G28A, G29C
DNA 1: CAATCTGAATTCCGGTCTCCC
DNA 2: TGGTGGCTACGACGGGATT
B25: ACCGUCG (DNA:RNA)
RNA: B1 RNA with A26C, G29U, A30C
DNA 1: CAATCTGAATTCCGGTCTCCC
DNA 2: TGGTGGCTACGACGGGATT
B26: GCUCGGC (DNA:RNA)
RNA: B2 RNA with U25G, G26C, C29G, U30G
DNA 1: CAATCTGAATTCCGGTCTCCC
DNA 2: TGGTGGCTACGACGGGATT
B27: CCGAUUA (DNA:RNA)
RNA: B2 RNA with U25C, G26C, U27G, C28A, C29U, C31A
DNA 1: CAATCTGAATTCCGGTCTCCC
DNA 2: TGGTGGCTACGACGGGATT
B28: UAUUGGC (DNA:RNA)
RNA: B2 RNA with G26A, C28U, C29G, U30G
DNA 1: CAATCTGAATTCCGGTCTCCC
DNA 2: TGGTGGCTACGACGGGATT
B29: AUGCAUG (DNA:RNA)
RNA: B1 RNA with A26U, C27G, G28C, G29A, A30U
DNA 1: CAATCTGAATTCCGGTCTCCC
DNA 2: TGGTGGCTACGACGGGATT
B30: AUCCCAG (DNA:RNA)
RNA: B1 RNA with A26U, G28C, G29C
DNA 1: CAATCTGAATTCCGGTCTCCC
DNA 2: TGGTGGCTACGACGGGATT
B31: CCUAUUU (DNA:RNA)
RNA: B2 RNA with U25C, G26C, C28A, C29U, C31U
DNA 1: CAATCTGAATTCCGGTCTCCC
DNA 2: TGGTGGCTACGACGGGATT

This assay concerns the target T1, RBFOX1 RRM. Briefly: EMSA; HiTS-Eq, 1 nM pool, 10 min; buffer printed only for the single-RNA assays: 10 mM Tris pH 7.5, 150 mM NaCl, 3.4 mM EDTA, 0.001% NP-40, 30 C. The conditions noted are these: tags: His6 N-terminal (pET28a); label: 5' 32P. Summed up: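 Relative association constants, normalised to the cognate motif, were derived by comparing read counts of each RNA species with those of the control reaction. The RNA sequenced was the free fraction, separated by 8% native PAGE after a 10 min equilibration in 50 µL of 1 nM 5′-radiolabelled RNA (7 randomized nucleotides) with increasing concentrations of purified wild-type or mutant RbFox RRM.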
(Mobility shift assays separate free from complexed probe on a gel.)
As to B1, the binding signal is 0.00672 KA relative to UGCAUGU.
The same measure for B2: 0.0115 KA relative to UGCAUGU; for B3: 0.0051 KA relative to UGCAUGU.
For B4, the binding signal is 0.0198 KA relative to UGCAUGU.
As for B5, the binding signal was 0.0157 KA relative to UGCAUGU.
With B6, the binding signal was 0.00128 KA relative to UGCAUGU.
In the case of B7, the binding signal was 0.0452 KA relative to UGCAUGU.
Take B8: the binding signal is 0.012 KA relative to UGCAUGU.
On to B9, for which the binding signal was 0.0158 KA relative to UGCAUGU.
Turning to B10, the binding signal was 0.00858 KA relative to UGCAUGU.
On to B11, for which the binding signal was 0.00337 KA relative to UGCAUGU.
As for B12, the binding signal was 0.0222 KA relative to UGCAUGU.
B13: the binding signal was 0.0142 KA relative to UGCAUGU.
With B14, the binding signal is 0.00406 KA relative to UGCAUGU.
On to B15, for which the binding signal was 0.00294 KA relative to UGCAUGU.
As to B16, the binding signal was 0.00526 KA relative to UGCAUGU.
Take B17: the binding signal is 0.0085 KA relative to UGCAUGU.
For the molecule B18, the binding signal was 0.00873 KA relative to UGCAUGU.
For B19, the binding signal is 0.0152 KA relative to UGCAUGU.
For B20, the binding signal was 0.0101 KA relative to UGCAUGU.
Regarding B21, the binding signal is 0.0332 KA relative to UGCAUGU.
Take B22: the binding signal is 0.0219 KA relative to UGCAUGU.
As to B23, the binding signal was 0.00251 KA relative to UGCAUGU.
Regarding B24, the binding signal was 0.00906 KA relative to UGCAUGU.
The same measure for B25: 0.0059 KA relative to UGCAUGU.
With B26, the binding signal is 0.0182 KA relative to UGCAUGU.
As to B27, the binding signal was 0.00395 KA relative to UGCAUGU.
In the case of B28, the binding signal was 0.0128 KA relative to UGCAUGU.
In the case of B29, the binding signal was 0.911 KA relative to UGCAUGU.
In the case of B30, the binding signal was 0.00271 KA relative to UGCAUGU.
Take B31: the binding signal is 0.00115 KA relative to UGCAUGU.
